Consider 14 cell lines from the supplement of paper PMC4967469.

Lines with a small IC50 respond at low doses; a limit (>, <) means that the fit lies beyond the doses tested. For AUC the same curve is integrated over the 256-fold range of doses and scaled to a fraction; values near 1 show little effect. For part of these data: Where the top dose is marked as inferred, it is not printed in the source and was worked back from the curve model. For part of these data: Drugs with an entry number were screened twice under separate entries, and the two screens often disagree.

What all share (assay): Viability of human cancer cell lines after 72 h of drug (GDSC screen)
Compound in test [1]: CC1(C)CC(=O)c2c(C(F)(F)F)nn(-c3ccc(C(N)=O)c(N[C@H]4CC[C@H](O)CC4)c3)c2C1 [SNX-2112]
To be noted: top dose 2.56 µM. Here is the method: (§1)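 Human cancer cell lines in 384-well plates, medium with 10% serum, drug for 72 h over a 256-fold dose range (nine 2-fold or five 4-fold steps up to the top dose). Adherent lines were fixed and stained with the nucleic acid dye Syto60, suspension lines read with resazurin; signal relative to control wells, capped at 0 and 100%. One two-parameter sigmoid per drug and line, fitted in a mixed model over all curves with the slope shared within a line.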

Compound in test [2]: O=C(NC1CC1)c1cccc(-c2ccc3c(NC(=O)C4CC4)n[nH]c3c2)c1 [XMD13-2]
The conditions noted are these: top dose 10.24 µM; top dose inferred. The protocol:
as §1

Compound in test [3]: CN(C)C/C=C/C(=O)Nc1cc2c(Nc3ccc(F)c(Cl)c3)ncnc2cc1O[C@H]1CCOC1 [Afatinib]
Here is the method:
as §1

Compound in test [4]: CN(c1ncccc1CNc1nc(Nc2ccc3c(c2)CC(=O)N3)ncc1C(F)(F)F)S(C)(=O)=O [PF-562271]
The conditions noted are these: top dose 2.56 µM; top dose inferred. Here is the method: as §1

Where [5] appears, read: top dose 0.5 µM, screen: GDSC drug entry 1032.
Where [6] appears, read: top dose 10 µM, screen: GDSC drug entry 1377, top dose inferred.

As usually defined, the IC50 is the concentration that inhibits the measured activity by half. In the case of SNU-C2B (large intestine, adherent), the AUC in test [1] came out at 0.436; in test [2] it was 0.894; in test [3] (setting [5]), 0.897; in test [3] (setting [6]) it was 0.863; in test [4], 0.942. Further, the IC50 in test [1] was 101 nM; in test [2], more than 10200 nM; in test [3] (setting [5]), more than 500 nM; in test [3] (setting [6]), more than 10000 nM; in test [4] it was more than 2560 nM.

SU-DHL-8 (B-cell lymphoma, suspension): the AUC in test [1] stood at 0.295; in test [2], 0.582; in test [3] (setting [6]) it was 0.968; in test [4] it was 0.937. For the same cell line, the IC50 in test [1] was 44.3 nM; in test [2], 1060 nM; in test [3] (setting [6]), more than 10000 nM; in test [4], more than 2560 nM.

For the cell line SU-DHL-10 (B-cell lymphoma, suspension), the AUC in test [1] amounted to 0.17; in test [2], 0.92; in test [3] (setting [6]), 0.998; in test [4], 0.9. The IC50 in test [1] was 25.1 nM; in test [2], 7320 nM; in test [3] (setting [6]), more than 10000 nM; in test [4], 1580 nM.

Take SW156 (kidney, adherent): the AUC in test [1] worked out at 0.94; in test [2] it was 0.979; in test [3] (setting [6]) it was 0.826; in test [4], 0.957. Also, the IC50 in test [1] is more than 2560 nM; in test [2] it was more than 10200 nM; in test [3] (setting [6]) it was 6950 nM; in test [4], more than 2560 nM.

As for SW837 (large intestine, adherent), the AUC in test [1] turned out to be 0.636; in test [2], 0.936; in test [3] (setting [6]) it was 0.84; in test [4], 0.976. Moreover, the IC50 in test [1] is 431 nM; in test [2], more than 10200 nM; in test [3] (setting [6]), more than 10000 nM; in test [4] it was more than 2560 nM.

Consider SW872 (soft tissue, adherent), for which the AUC turned out to be 0.734 in test [1], 0.985 in test [2], 0.976 in test [3] (setting [6]) and 0.884 in test [4]. Besides, the IC50 was 687 nM in test [1], more than 10200 nM in test [2], more than 10000 nM in test [3] (setting [6]) and 2310 nM in test [4].

With SW1088 (glioma, adherent), the AUC in test [1] came to 0.716; in test [2], 0.956; in test [3] (setting [6]), 0.938; in test [4] it was 0.963. The IC50 is 796 nM in test [1], more than 10200 nM in test [2], more than 10000 nM in test [3] (setting [6]) and more than 2560 nM in test [4].

SW1463 (large intestine, adherent): the AUC in test [1] came out at 0.868; in test [2], 0.9; in test [3] (setting [6]), 0.771; in test [4], 0.939. The IC50 in test [1] is more than 2560 nM; in test [2], more than 10200 nM; in test [3] (setting [6]) it was 7120 nM; in test [4], more than 2560 nM.

Regarding T-24 (bladder, adherent), the AUC in test [1] turned out to be 0.869; in test [2], 0.952; in test [3] (setting [6]) it was 0.972; in test [4], 0.928. Moreover, the IC50 in test [1] was 2180 nM; in test [2], more than 10200 nM; in test [3] (setting [6]) it was more than 10000 nM; in test [4], more than 2560 nM.

In the case of TC-71 (Ewing sarcoma, adherent), the AUC in test [1] was determined as 0.264; in test [2], 0.891; in test [3] (setting [6]) it was 0.973; in test [4], 0.992. In addition, the IC50 in test [1] is 39.3 nM; in test [2], 8430 nM; in test [3] (setting [6]), more than 10000 nM; in test [4] it was more than 2560 nM.

In the case of TCCSUP (bladder, adherent), the AUC in test [1] turned out to be 0.553; in test [2], 0.961; in test [3] (setting [6]), 0.982; in test [4], 0.976. The IC50 in test [1] was 228 nM; in test [2] it was more than 10200 nM; in test [3] (setting [6]), more than 10000 nM; in test [4], more than 2560 nM.

Turning to TE-10 (oesophagus, adherent), the AUC in test [1] was found to be 0.947; in test [2] it was 0.935; in test [3] (setting [6]) it was 0.89; in test [4] it was 0.901. Further, the IC50 was more than 2560 nM in test [1], more than 10200 nM in test [2], more than 10000 nM in test [3] (setting [6]) and more than 2560 nM in test [4].

As to TGBC24TKB (biliary tract, adherent), the AUC in test [1] is 0.921; in test [2], 0.99; in test [3] (setting [6]), 0.751; in test [4], 0.964. Besides, the half-inhibitory concentration (IC50) in test [1] was more than 2560 nM; in test [2], more than 10200 nM; in test [3] (setting [6]), 3110 nM; in test [4], more than 2560 nM.

Take U031 (kidney, adherent): the AUC in test [1] worked out at 0.962; in test [2] it was 0.945; in test [3] (setting [6]), 0.884; in test [4] it was 0.948. The IC50 in test [1] is more than 2560 nM; in test [2], more than 10200 nM; in test [3] (setting [6]) it was more than 10000 nM; in test [4], more than 2560 nM.
